Where “and” joins values, the source holds several entries; their conditions need not be identical. Equal entries are not always repeated. In all, about 5,300 compounds were measured (“PER2::LUC luminescence relative to vehicle control”: median about 0.96, highest 2% from about 1.3 on). The list shows a part of the results.
System: mPer2Luc MEF
Test: PER2::LUC luminescence relative to vehicle control (fold of vehicle); higher = higher PER2::LUC reporter signal
Conditions: 10 µM
Outline: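 Mouse embryonic fibroblasts carrying the mPer2Luc reporter were seeded at ~3000 cells per well in 384-well plates, 48 h before compounds from commercial libraries were added at 10 μM. Cells were grown in DMEM with 10% FBS at 37 °C and 5% CO2. Luminescence was read with the ONE-Glo luciferase assay system 24 h and 30 h after treatment, followed by an alamarBlue viability assay. The value is PER2::LUC luminescence as fold of vehicle control.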

SMILES | PER2::LUC luminescence (time after treatment 24 h) | PER2::LUC luminescence (time after treatment 30 h)
COc1cc(O)ccc1C(C)=O | 0.96 | 0.926
Fc1ccc(-c2c3cccc(C(F)(F)F)c3nn2Cc2ccc(F)cc2Cl)cc1 | 0.962 | 0.911
CCOc1cc2c(c(F)c1OCC)C(=N)N(CC(=O)c1cc(N3CCOCC3)c(OC)c(C(C)(C)C)c1)C2 | 0.14 | 0.117
Cn1cc(-c2ccc3c(c2)CCN3C(=O)Cc2cccc(C(F)(F)F)c2)c2c(N)ncnc21 | 0.634 | 0.566
Oc1cccc(-c2nc(N3CCOCC3)c3oc4ncccc4c3n2)c1 | 0.876 | 0.791
CC(CN(C)C)CN1c2ccccc2Sc2ccccc21 (stereo not given) | 0.81 | 0.814
CC1(C)[C@@H](OC(=O)CCC(=O)O)CC[C@]2(C)[C@H]3C(=O)C=C4[C@@H]5C[C@@](C)(C(=O)O)CC[C@]5(C)CC[C@@]4(C)[C@]3(C)CC[C@@H]12 | 0.965 and 0.646 | 0.891 and 1.01
N=C(N)NCCN1CCCCCCC1 | 1.05 | 1.11
CC(C)CCCC(C)NC(C)C (stereo not given) | 0.984 | 0.97
C#C[C@]1(O)CC[C@H]2[C@@H]3CCC4=CC(=O)CC[C@@H]4[C@H]3CC[C@@]21CC | 1.03 | 1.1
N#C/C(=C\c1ccc(O)c(O)c1)C(=O)NCc1ccccc1 | 0.908 and 0.909 | 0.829 and 0.787
CC(N)(Cc1ccc(O)c(O)c1)C(=O)O (racemic) | 0.98 | 0.884
CCN(CC)CCOCCOC(=O)C(CC)(CC)c1ccccc1 | 0.84 and 0.704 | 0.816 and 0.848
Cc1cc(C)c(S(=O)(=O)Nc2cccc(C(F)(F)F)c2)c(C)c1 | 1.1 | 1.07
CN1C2CCC1CC(OC(=O)C(O)c1ccccc1)C2 (stereo not given) | 0.998 | 1.01
Nc1ccccc1C(=O)CC(N)C(=O)O (stereo not given) | 0.995 | 0.985
CC(C)(C)[C@H]1CC[C@H](CC2=C(O)C(=O)c3ccccc3C2=O)CC1 | 1 | 0.901
COC(=O)Nc1ccc2[nH]cc(CCNC(C)=O)c2c1 | 0.821 | 0.976
O=C([O-])/C=C/C(=O)[O-].[Fe+2] | 0.928 | 0.857
O=C(NC1CCN(CC(F)(F)F)CC1)c1ccc(-c2cccc(F)c2)nc1 | 1.15 | 1.04
CCCOc1ccc(C(=O)OCCN(CC)CC)cc1N | 1.03 | 0.962
CC1=C(/C=C/C(C)=C\C=C\C(C)=C\C(=O)O)C(C)(C)CCC1 | 2.08 | 1.87
O=C(NCCN1CCCCC1)c1ccc(I)cc1 | 1.02 | 0.961

SMILES | PER2::LUC luminescence (time after treatment 24 h) | PER2::LUC luminescence (time after treatment 30 h)
CC(=O)OCC(=O)[C@@]1(OC(C)=O)[C@@H](C)C[C@H]2[C@@H]3C[C@H](F)C4=CC(=O)C=C[C@]4(C)[C@@]3(F)[C@@H](O)C[C@@]21C | 0.727 | 0.933
CCN(CC)CCCCNc1ncc2cc(-c3cc(OC)cc(OC)c3)c(NC(=O)NC(C)(C)C)nc2n1 | 0.507 | 0.487
C[C@]1(Cn2ccnn2)[C@H](C(=O)O)N2C(=O)C[C@H]2S1(=O)=O | 0.936 and 1.11 | 0.907 and 1.1
CN(C)CCC(c1ccc(Br)cc1)c1ccccn1 (single isomer, unassigned; (+)) | 0.858 | 0.724
CC[C@@H](CO)NCCN[C@@H](CC)CO | 0.99 and 1.12 | 1.09 and 1.05
C/C=C/C/C=C/CCC(=O)[C@H]1O[C@H]1C(N)=O | 0.657 | 0.693
c1ccc2[nH]ncc2c1 | 0.963 | 0.985
CNC(=N)NCCC[C@H](N)C(=O)O | 0.86 | 1.01
CNC(=O)c1ccc(C)c(-n2c(C)cc(OCc3ccc(F)cc3F)c(Br)c2=O)c1 | 0.809 | 0.921
COCCOc1ccc(N2CCN(CCn3ncc4c3nc(N)n3nc(-c5ccco5)nc43)CC2)cc1 | 1.05 | 0.963
Cc1cc(-c2ccc(/N=N/c3ccc4c(S(=O)(=O)O)cc(S(=O)(=O)O)c(N)c4c3O)c(C)c2)ccc1/N=N/c1ccc2c(S(=O)(=O)O)cc(S(=O)(=O)O)c(N)c2c1O | 0.992 | 0.81
C=C1CC[C@H]2C(=C)CC[C@H]3C(=C)C(=O)O[C@@H]3[C@@H]12 | 0.979 | 0.959
CC(O)c1ccc(S(=O)(=O)NC(=O)NC2CCCCC2)cc1 (stereo not given) | 0.967 | 1.12
COCCc1ccc(OCC(O)CNC(C)C)cc1 (racemic) | 1.22 | 0.971
Cc1cc(O)c2c(O)c3c(O)cccc3cc2c1 | 0.944 | 0.967
C=CCSCC1Nc2cc(Cl)c(S(N)(=O)=O)cc2S(=O)(=O)N1 (stereo not given) | 0.944 | 0.901
Cc1ccc(-n2nc(C(C)(C)C)cc2NC(=O)Nc2ccc(OCCN3CCOCC3)c3ccccc23)cc1 | 0.888 and 1.25 | 1.11 and 0.954
CCCCCCCCCCCCCC[C@@H](O)[C@@H](O)[C@@H](CO)NC(C)=O | 1.07 | 1.04
NC(=O)c1cccc(N)c1 | 1.1 | 1.01
CCCCC[C@H](O)/C=C/C=C\CCCCCCCC(=O)O | 0.991 | 0.9
NC(=O)NS(=O)(=O)c1ccc(N)cc1 | 1.1 | 1.01 and 0.964
O=C1CCCC(=O)C1C(=O)c1ccc(C(F)(F)F)cc1[N+](=O)[O-] | 1.15 | 1.06
